Test results reported in publication PMC7819943, “Rice protein-binding microarrays: a tool to detect cis-acting elements near promoter regions in rice”.
Some of the results follow.

target: T1, OsWOX13 (Oryza sativa, UniProt Q5QMM3 1-267); assay: protein-binding microarray (RPBM); PBS, 2% BSA, 51.3 ng/ul salmon testes DNA, 50 uM zinc acetate, 200 nM TF, 25 C, 1 h; high values mean tight binding; details: protein: recombinant; tags: N-terminal polyhistidine and DsRed monomer fusion (pET32a); label: CyDye5-dUTP incorporated in the synthesized complementary strand; 3' TTTTT single-stranded linker to array surface; dsDNA, one strand shown
T1 sequence: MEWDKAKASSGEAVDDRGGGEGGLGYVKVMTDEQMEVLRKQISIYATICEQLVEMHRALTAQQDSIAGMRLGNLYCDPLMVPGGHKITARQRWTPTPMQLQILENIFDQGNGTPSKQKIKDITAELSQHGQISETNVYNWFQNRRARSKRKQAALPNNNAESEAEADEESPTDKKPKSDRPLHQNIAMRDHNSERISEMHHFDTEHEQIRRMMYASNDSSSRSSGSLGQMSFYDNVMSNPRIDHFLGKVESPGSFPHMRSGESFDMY
Method in brief: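 Polyhistidine-tagged DsRed fusions of transcription factors, joined at the N-terminus, were expressed in E. coli BL21-CodonPlus and isolated on Ni–NTA. They were incubated at 200 nM for 1 h at 25 °C on a custom Agilent array, double-stranded and BSA-blocked, in PBS with 2% BSA, salmon testes DNA and 50 µM zinc acetate. The binding signal is per-feature fluorescence intensity (arbitrary units) read on an Axon 4000B scanner after washing.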

Sequence	binding signal
CGGCCAGATTTGATTTTGTACCTCCCGGTGCTAGTACCTACGGAGTCACCTAGTGCAG	3740 fluorescence intensity (a.u.)
TTACAAAATCTTATCAAATTTGATTAAAATTTGAAAGGATCGGAGTCACCTAGTGCAG	10400 fluorescence intensity (a.u.)
ATATATGACTGATCATCCATACATTTGGAGAAGTGAAATGCGGAGTCACCTAGTGCAG	8510 fluorescence intensity (a.u.)
GCATAATTTGCATAGAAATCGCGAGACGAATCTCTAATTACGGAGTCACCTAGTGCAG	10200 fluorescence intensity (a.u.)
TATAGATTTAACACTAAATTTATCACAAATATACAAGTTTCGGAGTCACCTAGTGCAG	11900 fluorescence intensity (a.u.)
CAAGCTGACTGGTAGGTGGGCCCTCACTAGAATCACGTGCCGGAGTCACCTAGTGCAG	4490 fluorescence intensity (a.u.)
GAATAATAGGCATGGAAAATTACGTACTATAAACCACGTCCGGAGTCACCTAGTGCAG	3220 fluorescence intensity (a.u.)
AAGCTCAATTAGTGCCAAATCCGTGGAGGCAGCCGGAGGGCGGAGTCACCTAGTGCAG	4620 fluorescence intensity (a.u.)
GTTGATACTGAATAATTGAATTAGCCATTTCCAAACAGATCGGAGTCACCTAGTGCAG	23400 fluorescence intensity (a.u.)
ATAATAATTATTTGATAGTTTCAGAGTTAGGGATGGCCTACGGAGTCACCTAGTGCAG	47500 fluorescence intensity (a.u.)
TGGTGATTTAGTCCGTATGATTGGCGAATTGGTTGACAAGCGGAGTCACCTAGTGCAG	37100 fluorescence intensity (a.u.)
ATCGAATTGAGTGGTGACCAGAAACCGCAGCGGCTGCGTCCGGAGTCACCTAGTGCAG	4980 fluorescence intensity (a.u.)
ACGTTGCAAAATAACTCTGATTGAGCATACAAGTGCAGACCGGAGTCACCTAGTGCAG	9430 fluorescence intensity (a.u.)
AGGATTAATTAGGCTTAATAAATTCGTCTCGCAGTTTACACGGAGTCACCTAGTGCAG	22000 fluorescence intensity (a.u.)
TCACCTGATTAGGCTTTCAATTGGGCCGAAATGAGACTGCCGGAGTCACCTAGTGCAG	21500 fluorescence intensity (a.u.)
TATCTGATGAGAGCAGATTGCCACACATCACAGCATGCAGCGGAGTCACCTAGTGCAG	10300 fluorescence intensity (a.u.)
TCGATGTTAGATTTAATAGAATTAATTTCGTGTTATAAGACGGAGTCACCTAGTGCAG	7400 fluorescence intensity (a.u.)
AGTGAAAACGACGCTATATAATTGACAATCTGAAGGCAACCGGAGTCACCTAGTGCAG	9170 fluorescence intensity (a.u.)
AGGATAAATAATCTAGGTATAATTTTATGTTTAGCAGCACCGGAGTCACCTAGTGCAG	5190 fluorescence intensity (a.u.)
CGAGGCAGTGATTAATTAAGTAGCTAGCTAGTTACAGGCACGGAGTCACCTAGTGCAG	14300 fluorescence intensity (a.u.)
AATAACAGGAATCTGTCACATGCTCACATGTGTATAAGCCCGGAGTCACCTAGTGCAG	7010 fluorescence intensity (a.u.)

Sequence	binding signal
ATGTTGAAGCCCAATTAACAGGTATATACCGTCGCCTCCTCGGAGTCACCTAGTGCAG	3510 fluorescence intensity (a.u.)
CCAAAATTTAAAATTTAACATAAAATCTGAAGCTAATTTTCGGAGTCACCTAGTGCAG	12000 fluorescence intensity (a.u.)
TGCTGATGAGCTTATACATCAGAGACCTGTGCATCGCCGTCGGAGTCACCTAGTGCAG	7770 fluorescence intensity (a.u.)
TAATAATTTTAAAATTTGTTGAATAAGACAAGTGGTCAAACGGAGTCACCTAGTGCAG	12700 fluorescence intensity (a.u.)
GGGTAATTAGTCATAAGAATCAGGTGTCCCTTCACCATTGCGGAGTCACCTAGTGCAG	30400 fluorescence intensity (a.u.)
TGTCAATTAGATTCAGCAGCAAGATGGTTGGAACTTGACCCGGAGTCACCTAGTGCAG	8500 fluorescence intensity (a.u.)
CATGATTTGACAATATGGTGCTATAGTAAATATTTGCTAACGGAGTCACCTAGTGCAG	38100 fluorescence intensity (a.u.)
CTATGGACAAATTACGCATCTTCGATTGATGCTAGAGCACCGGAGTCACCTAGTGCAG	10500 fluorescence intensity (a.u.)
CTGATCATATAATTGAGAACCAAAATGCAGCCATGACCACCGGAGTCACCTAGTGCAG	19700 fluorescence intensity (a.u.)
ACCTTGATTATGCCAAGCACTTCCCAAAATTTGGTTATCTCGGAGTCACCTAGTGCAG	25600 fluorescence intensity (a.u.)
TGGTATCGATTAACAGGTTAATTTGGAGCGTCATGGGCTACGGAGTCACCTAGTGCAG	10400 fluorescence intensity (a.u.)
TATTGATGATGAGCCCAGTTCTGAGTTATCCCGAGTCCTGCGGAGTCACCTAGTGCAG	5490 fluorescence intensity (a.u.)
GACGAGGTAATCATCAACCCAACAAAATTGATTAAACAAACGGAGTCACCTAGTGCAG	11300 fluorescence intensity (a.u.)
GACAGACATAACTAACAATATCATCAATATTAAGAAGATGCGGAGTCACCTAGTGCAG	3370 fluorescence intensity (a.u.)
TTAAACGTAGATTATTAATAAAACTCATCCATAATCTTGGCGGAGTCACCTAGTGCAG	7420 fluorescence intensity (a.u.)
CCCATCAAATTAACGCCTTCAAAGTTGGGCCGTCCAACGACGGAGTCACCTAGTGCAG	3200 fluorescence intensity (a.u.)
AATTTAATTGGAAAAGTAATTAAAATTCCTCTTTTCCTTTCGGAGTCACCTAGTGCAG	43400 fluorescence intensity (a.u.)
CCACATTTATATTGATCTAGATTTATTAATATCATTATGACGGAGTCACCTAGTGCAG	10800 fluorescence intensity (a.u.)
GCCCACATTTGGCTATTCTGATTGGATGGCTAAATTTGGGCGGAGTCACCTAGTGCAG	12700 fluorescence intensity (a.u.)
CTGTGGATTGATGATTACAAAGGTACAATGCACGTATGATCGGAGTCACCTAGTGCAG	44900 fluorescence intensity (a.u.)
AAAATGATTATCTTAAGTGGCTAAGGCTTACAATGAATTGCGGAGTCACCTAGTGCAG	28300 fluorescence intensity (a.u.)

Sequence	binding signal
GGAACATTGATAGATGGACTTTGTAAGTCAGGCAGAGTAGCGGAGTCACCTAGTGCAG	19400 fluorescence intensity (a.u.)
ATTAGATTTACCGCAAACAATGACGTCCTCCCTGCCTGGACGGAGTCACCTAGTGCAG	4950 fluorescence intensity (a.u.)
ATTTTATTTACTGATTATTGAAATGGATTATGGACTATTTCGGAGTCACCTAGTGCAG	18000 fluorescence intensity (a.u.)
AAAATATAATCATGAGAATGAGTTACGTTACATGAATGACCGGAGTCACCTAGTGCAG	3290 fluorescence intensity (a.u.)
CATAACTTGCTGAGATGACAGATGATCAAACAAGCTCATGCGGAGTCACCTAGTGCAG	8260 fluorescence intensity (a.u.)
TAACGTAATTAATGTGTTGTTCATCAGGAATTAGGAGACGCGGAGTCACCTAGTGCAG	26900 fluorescence intensity (a.u.)
TCTGATATTGAAATTGAAGTTAATACAGATGATGAGGAGACGGAGTCACCTAGTGCAG	6070 fluorescence intensity (a.u.)
GCCGGAATTAATACTAAATTTCCCGCGAAGTACAGAGGCGCGGAGTCACCTAGTGCAG	5760 fluorescence intensity (a.u.)
GGTCCAGCCCTGCGCTACGGTGATTGGCCCACACCTGTCACGGAGTCACCTAGTGCAG	3880 fluorescence intensity (a.u.)
ATTTCAAAACATAATTTTAAATTTATGTTTTGGGCCTTTTCGGAGTCACCTAGTGCAG	4860 fluorescence intensity (a.u.)
CCAAATTGTATTGTGCACGCGCCGACAAGCCCGGACAGCCCGGAGTCACCTAGTGCAG	3980 fluorescence intensity (a.u.)
TAGCAATAAATTTGCATGACTAACCTTTTGATCGGATGTTCGGAGTCACCTAGTGCAG	5500 fluorescence intensity (a.u.)
ATTCAATCAAATCACTCCAAGCAAGCAGTCTGCATCAGACCGGAGTCACCTAGTGCAG	18100 fluorescence intensity (a.u.)
TTCGTAATTTACAGCTCATCCTTTTATAGTAGTAGTAGCTCGGAGTCACCTAGTGCAG	20600 fluorescence intensity (a.u.)
GTTCATGCAATAACGTTAATTTGGGACTAGATTAGTATCCCGGAGTCACCTAGTGCAG	7620 fluorescence intensity (a.u.)
GCTAATATTGATATGGAAGGTTAATTATCCTCTCTCCATTCGGAGTCACCTAGTGCAG	8950 fluorescence intensity (a.u.)
AATCACAAATTGAGATCCTAATATTTCCTCACGCCCAATACGGAGTCACCTAGTGCAG	7300 fluorescence intensity (a.u.)
ACCCTTACATTACTTCCTTAAACCATTAACATCTGAATTCCGGAGTCACCTAGTGCAG	3370 fluorescence intensity (a.u.)
AGTAATTCAGATTAGCAGGAGTAACAATTGGATTAGCAAGCGGAGTCACCTAGTGCAG	4930 fluorescence intensity (a.u.)
CCCTAAAATAACCTAATCATGTTGGAACTAGGATCAATGCCGGAGTCACCTAGTGCAG	5290 fluorescence intensity (a.u.)
CAGTAGTAAATTACACTAGTAGACACATGTGTATGCAATGCGGAGTCACCTAGTGCAG	5040 fluorescence intensity (a.u.)

Sequence	binding signal
CCAATTTTATTGGAATTAATTGTTAACCCATCCTTTGATCCGGAGTCACCTAGTGCAG	24300 fluorescence intensity (a.u.)
AGCCCCTAAGCCAATCAATTAGCAGGCATCTTTACTCCTACGGAGTCACCTAGTGCAG	18500 fluorescence intensity (a.u.)
GCCAATAACAAATCACAGGAAATCCGGCGAGATTTCCGAACGGAGTCACCTAGTGCAG	3820 fluorescence intensity (a.u.)
CGACTTTCATCAAAGTTAAATTATTTCAAGTTTGATTAAGCGGAGTCACCTAGTGCAG	3960 fluorescence intensity (a.u.)
AGCTTCATCTGATTGGATCTGAAAAGGGACATGTTCTGGACGGAGTCACCTAGTGCAG	29400 fluorescence intensity (a.u.)
TGTTAAATGGCCAGTGATGAATTGCTCAATAAGAACAGATCGGAGTCACCTAGTGCAG	16400 fluorescence intensity (a.u.)
CAGATTGATCAGACCCTTCAATTAAGCCCACGATGGGCCTCGGAGTCACCTAGTGCAG	46900 fluorescence intensity (a.u.)
ACGACACATTGACAGCCACCACTCACCTGCTGATAACCAGCGGAGTCACCTAGTGCAG	5250 fluorescence intensity (a.u.)
AAGGAACTTAGCATCAATTATCAATTATTAAGAGAGAAGACGGAGTCACCTAGTGCAG	4280 fluorescence intensity (a.u.)
ATGTCGACATACGTAATTAATGTACACTCAGAACATGTCGCGGAGTCACCTAGTGCAG	4870 fluorescence intensity (a.u.)
ACTAATTATAAATATTAACCGTAGACTATTAATAAAACCCCGGAGTCACCTAGTGCAG	35000 fluorescence intensity (a.u.)
TATTGTAATTAAATCTTTACAATAAGAATCACATGATTATCGGAGTCACCTAGTGCAG	3150 fluorescence intensity (a.u.)
GAACTAAATCACAAAGCAAATCAGTAGCTAGACTGCAAAACGGAGTCACCTAGTGCAG	3780 fluorescence intensity (a.u.)
ATAATTTCAAATTTTGGTCGTGGCTGATAAGACCAACGAGCGGAGTCACCTAGTGCAG	3560 fluorescence intensity (a.u.)
AACTAGATGGCAACTGATTTCTGGGACAAAATCGCTTCTACGGAGTCACCTAGTGCAG	7500 fluorescence intensity (a.u.)
TTGTTGACTCAGTTTGATAGGTCGTTTTACTATATTACTGCGGAGTCACCTAGTGCAG	3540 fluorescence intensity (a.u.)
GATAGATGACGTATTATTAGACAGTGATGCGCTTGTGGTGCGGAGTCACCTAGTGCAG	5600 fluorescence intensity (a.u.)
GTTGGGACTGCCCTAATTTACACCTTGAAAGATGCAATTCCGGAGTCACCTAGTGCAG	7570 fluorescence intensity (a.u.)
CACTAATTAACGAAAAGAAACGCAGAGTTCCAATTAAGGACGGAGTCACCTAGTGCAG	18600 fluorescence intensity (a.u.)
CAATGATTATTGCAAAAGTACTCCAAGAAGTAAAGTGAACCGGAGTCACCTAGTGCAG	8060 fluorescence intensity (a.u.)
ATTATCATAATTTGAAATTCAAATTCAAATTATTGAAACACGGAGTCACCTAGTGCAG	17300 fluorescence intensity (a.u.)
